Experimental data: PubChem BioAssay AID274 (DTP/NCI, 2004)
Toxic doses and inconclusive results are not listed. Some entries of the source have several records that differ or are many. This is not the full list of results. An entry can have further records. Values given together are repeats (runs, samples, wells, individuals or studies).

Tested on: BDF1 mice, Lewis lung carcinoma iv, survival T/C
Assay: NCI In Vivo Anticancer Drug Screen. Data for tumor model Lewis Lung Carcinoma (intravenous) in B6D2F1 (BDF1) mice
Details: endpoint: median survival time, higher = longer survival
Experimental: The antitumor activity of compounds was measured in mice bearing transplantable tumors. Survival or tumor size were measured and the results are expressed as the measurement made in the treated group (T) divided by the measurement made in the vehicle treated control group (C). The tumor model used in this assay is Lewis Lung Carcinoma (intravenous) in B6D2F1 (BDF1) mice

For CN(C)/N=N/c1nc[nH]c1C(N)=O, which T/C (dose: 12.5 mg/kg/injection, schedule: Q01DX009 (ip), vehicle: Klucel (hydroxypropylcellulose) (HPC)) is on record?
The T/C was 112 % of control and 153 % of control.

Which T/C (dose: 500.0 mg/kg/injection, schedule: Q04DX003 (ip), vehicle: Klucel (hydroxypropylcellulose) (HPC)) does the source give for CC(CN1CC(=O)NC(=O)C1)N1CC(=O)NC(=O)C1 (configuration not stated) here?
Its T/C is 107 % of control and 198 % of control.

Which T/C (dose: 7.0 mg/kg/injection, schedule: Q04DX003 (ip), vehicle: saline) does the source give for N[C@@H](Cc1ccc(N(CCCl)CCCl)cc1)C(=O)O here?
The T/C was 113 % of control and 162 % of control.

Which T/C (dose: 16.0 mg/kg/injection, schedule: Q01DX001 (ip), vehicle: saline) does the source give for COc1cccc2c1C(=O)c1c(O)c3c(c(O)c1C2=O)C[C@@](O)(C(=O)CO)C[C@@H]3OC1CC(N)C(O)C(C)O1 (some centres not stated) here?
Its T/C is 107 % of control and 169 % of control.

What does the source list for CC(=O)C(O)N1C(=O)C=CC1=O (configuration not stated)?
T/C (dose: 1.25 mg/kg/injection, schedule: Q01DX009 (ip), vehicle: saline): 93 % of control and 168 % of control; T/C (dose: 2.5 mg/kg/injection, schedule: Q01DX009 (ip), vehicle: saline): 89 % of control and 177 % of control; T/C (dose: 5.0 mg/kg/injection, schedule: Q01DX009 (ip), vehicle: saline): 102 % of control and 167 % of control
